# Results published in article PMC4336329 (PLoS ONE, 2015).
# The whole screen tested about 310,000 compounds, of which about 14,000 (4.5%) showed an effect of 50% or more. The effect is printed as a negative number. Some of the results follow.
# Target: human ether-à-go-go-related gene (hERG) potassium channel (human, UniProt Q12809)
# Experiment: primary screen, population patch clamp on CHO cells stably expressing hERG
# 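Also: peak tail current of the secondary pulse compared with the same well before compound.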
# Chain of human ether-à-go-go-related gene (hERG) potassium channel (Q12809 whole entry, looked up): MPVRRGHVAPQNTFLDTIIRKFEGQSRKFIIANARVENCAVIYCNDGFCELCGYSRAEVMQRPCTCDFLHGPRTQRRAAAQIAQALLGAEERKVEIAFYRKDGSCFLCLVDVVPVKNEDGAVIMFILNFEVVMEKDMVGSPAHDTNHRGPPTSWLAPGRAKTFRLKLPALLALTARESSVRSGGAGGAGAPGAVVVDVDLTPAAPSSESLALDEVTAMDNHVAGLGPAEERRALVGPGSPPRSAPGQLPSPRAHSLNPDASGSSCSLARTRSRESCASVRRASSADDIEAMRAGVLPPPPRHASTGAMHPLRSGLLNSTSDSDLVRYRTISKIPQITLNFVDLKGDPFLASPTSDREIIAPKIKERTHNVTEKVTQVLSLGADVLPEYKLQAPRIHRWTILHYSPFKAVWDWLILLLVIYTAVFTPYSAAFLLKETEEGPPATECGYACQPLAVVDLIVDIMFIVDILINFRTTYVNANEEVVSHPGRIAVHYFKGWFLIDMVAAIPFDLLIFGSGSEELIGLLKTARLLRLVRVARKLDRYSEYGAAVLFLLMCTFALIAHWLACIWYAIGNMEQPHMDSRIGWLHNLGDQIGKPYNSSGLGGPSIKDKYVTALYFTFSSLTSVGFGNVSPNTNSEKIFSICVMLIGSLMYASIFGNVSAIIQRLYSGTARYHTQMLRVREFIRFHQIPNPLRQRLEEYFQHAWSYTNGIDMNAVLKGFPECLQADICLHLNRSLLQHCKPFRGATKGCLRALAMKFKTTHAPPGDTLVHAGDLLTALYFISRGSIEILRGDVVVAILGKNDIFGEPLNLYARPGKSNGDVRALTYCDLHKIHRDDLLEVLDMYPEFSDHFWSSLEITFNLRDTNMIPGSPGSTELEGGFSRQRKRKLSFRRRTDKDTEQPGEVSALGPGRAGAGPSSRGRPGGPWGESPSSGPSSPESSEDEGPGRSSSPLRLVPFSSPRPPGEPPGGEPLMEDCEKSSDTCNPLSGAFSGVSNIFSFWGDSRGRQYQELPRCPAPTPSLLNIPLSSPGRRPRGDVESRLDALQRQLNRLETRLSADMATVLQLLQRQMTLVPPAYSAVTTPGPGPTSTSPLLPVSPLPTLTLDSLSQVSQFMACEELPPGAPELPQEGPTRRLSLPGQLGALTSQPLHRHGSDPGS
row,Compound,"hERG current change (%, negative = inhibition) at 10uM [%]"
1,COc1cccc(Nc2ccc(C(=O)O)cc2N)c1,11.3
2,COc1ccc(CC(NC(C)=O)C(=O)NC2CCN(C(=O)c3ccccc3F)CC2)cc1 (centres unmarked),24.4
3,O=c1c2ccccc2oc2nc(-c3ccco3)n(Cc3ccccc3)c(=O)c12,-9.22
4,O=C(NC1CCCC1)C(c1ccsc1)N(C(=O)Cc1cccs1)c1ccccc1 (centres unmarked),-0.856
5,CCOC(=O)Cc1csc(SCC(=O)/C(C#N)=C(\C)N)n1,4.63
6,COc1cccc(C(=O)Nc2ccncc2)c1OC,10
7,Cc1cc(Cl)ccc1OCCCC(=O)Nc1cccc(-n2cnnn2)c1,2.21
8,CCOc1ccc(NC(=O)CN(C)C(=O)c2ccc(OCc3ccccc3)c(OC)c2)cc1OCC,-3.72
9,S=c1[nH]nc(-c2ccccn2)n1/N=C/c1ccc(Cl)cc1,10.6
10,CNc1ccc([N+](=O)[O-])cc1-c1nc2ccccc2[nH]c1=O,20.2
11,O=c1c2c3c(sc2n2cnnc2n1Cc1ccccc1)CN(Cc1ccccc1)CC3,-39.2
12,O=C(CCCCl)NC(=S)Nc1ccc(CN2CCOCC2)cc1,-6.81
13,Cc1cccc(OC(C)C(=O)N2CCc3ccccc3C2)c1 (centres unmarked),-7.36
14,Cc1cc2c(c(=O)o1)C(CCC1CCCCC1)C(C#N)=C(N)O2 (centres unmarked),3.96
15,O=C(C1CC(=O)N(c2ccc(F)cc2)C1)N1CCOCC1 (centres unmarked),1.27
16,O=C(O)C1c2ccccc2C(=O)N(Cc2ccc(F)cc2)C1c1ccncc1 (centres unmarked),11
17,Cc1cccc(-n2ccnc2SCC(=O)N2CCCc3ccccc32)c1C,-12.7
18,O=C(C1=C(O)C(=O)N(Cc2ccco2)C1c1ccccc1)c1cccs1 (centres unmarked),10.7
19,CC(C)(C)NC(=O)COC(=O)CCC(=O)c1ccc(F)cc1,12

row,Compound,"hERG current change (%, negative = inhibition) at 10uM [%]"
1,CC(=O)OCCNc1cc(Sc2nc3ccccc3[nH]2)c2nonc2c1[N+](=O)[O-],-12.1
2,COc1ccc(OC)c(-n2c(-c3cccc(S(=O)(=O)N(C)C)c3)n[nH]c2=S)c1,1.66
3,CC(C)(Oc1ccc(Cl)cc1)C(=O)N1CCN(C(=O)c2ccco2)CC1,-14.3
4,O=c1[nH]c(NCc2ccccc2)nc2c1CCCC2,7.79
5,Cc1cc(N2CCN(C)CC2)nc2ccc(NC(=S)NCCCN3CCc4ccccc4C3)cc12,-26.5
6,CCCCC1C(=O)N(c2ccccc2)N(c2ccc(O)cc2)C1=O (centres unmarked),-9
7,CCC(C)NC(=O)CCNS(=O)(=O)c1ccc(Br)cc1 (centres unmarked),-10.7
8,C=CCN1C(=O)/C(=C/c2ccc(Br)s2)C(=O)NC1=S,6.73
9,CCC(C)(C)c1ccc(OCCCC[n+]2ccccc2)c(C(C)(C)CC)c1.[Br-],-67.2
10,S=C(Nc1ccc(Nc2ccccc2)cc1)Nc1ccccn1,23.2
11,COc1ccccc1NS(=O)(=O)c1cccc(C(=O)N2CCN(C/C=C/c3ccccc3)CC2)c1,-34.9
12,Cc1ccc(C(=O)NCC(=O)N2CCC(Cc3ccccc3)CC2)cc1,-30.1
13,COc1cc2ncnc(NCc3ccc(Cl)cc3)c2cc1OC,-31.2
14,COc1ccc(NC(=O)C2CCN(C(=O)c3ccc(OC)cc3)CC2)cc1,-72.2
15,COc1ccc(C(=O)Nc2cccc(OC)c2)cc1,27.5
16,Cc1nnc(SCC(=O)NC2CCS(=O)(=O)C2)n1-c1ccccc1 (centres unmarked),5.15
17,Cc1cccc(Nc2ncnc3nc[nH]c23)c1C,-12.5
18,COc1ccc(C2C=C(C)Nc3ncnn32)cc1 (centres unmarked),19.8
19,CCOc1ccccc1OCCCC(=O)N(CC)CC(=O)Nc1ccc(NC(C)=O)cc1,10.1

row,Compound,"hERG current change (%, negative = inhibition) at 10uM [%]"
1,Cc1ccnc(SCC(=O)N2CCN(c3cccc(Cl)c3)CC2)n1,-25.2
2,Cc1cc(N2CCCC2=O)cc(C)c1CN1C(=O)c2ccccc2C1=O,19.1
3,Cc1cccc(N2CCN(C(=O)c3ccncc3)CC2C)c1 (centres unmarked),6.99
4,N#C/C(=C\c1ccc(OCc2ccc(C(=O)O)cc2)cc1)C(=O)NCc1ccccc1,10.3
5,COc1cccc2sc(NC(=O)c3ccc(S(=O)(=O)N4CCOCC4)cc3)nc12,7.21
6,O=C1NC(=O)C(=Cc2ccc(Oc3ccc([N+](=O)[O-])cc3)cc2)C(=O)N1,-25
7,O=C(Cn1c(=O)c2cccn2c2ccccc21)Nc1ccc(F)cc1F,-0.446
8,CCOC(=O)c1cnn(-c2cc(Oc3cccc(C)c3)ncn2)c1N,10.6
9,COC(=O)C(Cc1ccccc1)NCC(=O)Nc1cccc(Cl)c1C (centres unmarked),-8.26
10,CNc1c(NS(=O)(=O)c2ccc(Br)cc2)c(=O)oc2ccccc12,-7.72
11,O=c1ccc2cc(S(=O)(=O)Nc3ccccc3F)ccc2o1,11.2
12,Cc1ccc(C(=O)OCC2OC3OC(C)(C)OC3C2O)cc1 (centres unmarked),4.89
13,CCOC(=O)C1=C(Nc2cccc(Cl)c2)OCC1=O,-14.8
14,CN(Cc1ccc(Cl)s1)C(=O)CNC(=O)CNC(=O)c1ccc(Cl)cc1Cl,-56.8
15,Cc1cc(NC(=O)COC(=O)c2cccc(S(=O)(=O)N(C)C3CCCCC3)c2)no1,-32.8
16,Cc1ccc(-n2c(N)c(C(=O)Nc3c(C)n(C)n(-c4ccccc4)c3=O)c3nc4ccccc4nc32)cc1C,2.72
17,CC/C(O)=C1\C(=O)CCCC1=NCCc1c(C)[nH]c2ccc(C)cc12,-14
18,COc1ccc(S(=O)(=O)NCCC(C)C)cc1OC,3.24
